Experimental data published in paper PMC12136788.
This is one part of the list.

T1: UNK ZnF1-3 (human, UniProt Q9C0B0 31-174)
T1 sequence: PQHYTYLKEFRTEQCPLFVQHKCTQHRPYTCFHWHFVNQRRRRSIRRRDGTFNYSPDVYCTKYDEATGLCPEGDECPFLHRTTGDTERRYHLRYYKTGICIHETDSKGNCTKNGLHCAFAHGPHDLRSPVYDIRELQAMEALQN

B1: chr17:71578653:71578654:+_ENSMUSG00000024052_ENSMUST00000129635|mus_hu|FALSE|FALSE (ssRNA)
RNA: GGGAGUUCUACAGUCCGACGAUCAGAUCCUCGUGCUGCCUGGGCCCCCUUGUCAUCAUCGGAGCUCACGCCUACAUCACAUGUGUCUUCUGCAGCAGCAGAUGCGGCCUGCUCUUCCUUCUUACUGUCCUGUUUGUAUUUCUUCAACAGAGGAUUGAGCAUCA
B2: chr2:42509997:42509998:+_ENSG00000143924_ENST00000318522|hu_mus|hu_hu_hu_mus_True|78_88 (ssRNA)
RNA: GGGAGUUCUACAGUCCGACGAUCUCGCUGAGUCCUCUCCUCAUAAUUAAAUAGUACUACUACUGAUGCGAUAAAAUAAACUAUCUCCCCUGUGGGAAGCAGGUAUACAUUCGCUCUACAGUCCUUUCCUCGAUAACCGUAUACCAACAGAGGAUUGAGCAUCA
B3: chr10:73576327:73576328:-_ENSG00000197746_ENST00000394936|hu_mus|motif|central (ssRNA)
RNA: GGGAGUUCUACAGUCCGACGAUCCCCACUGCCAGGCAGACGCUUCACUCAUGAGGUGAACAGGCAGGUCAACAAGAGCGGCAGGUGGUGGGAAAGCCGUGCAGGACCCCAAACAGCCAGGCAGAGGCCACACGGUCAAGGGCCCAACAGAGGAUUGAGCAUCA
B4: chr11:86893775:86893776:-_ENSMUSG00000020495_ENSMUST00000020801|mus_hu|FALSE|FALSE (ssRNA)
RNA: GGGAGUUCUACAGUCCGACGAUCCCUCAUAAGUUGAGCAUAAUGAGGUUUCAGCCCUCUACCUUGAGAGGAUGACAGAAUAUAUAAGGGCAUGUCACUAUUUAGGGCUUUUAAAGCUGAUUCCUUUGGCCCACUUCCCAUUACCAACAGAGGAUUGAGCAUCA
B5: 90660614_90660734_1853_3pUTR_ENSG00000112182_ENST00000537989|human|control|control (ssRNA)
RNA: GGGAGUUCUACAGUCCGACGAUCUGGACACCUCCUUCUGGCCCACGUGGGGCUGUCCAUAAUUCCCUGUGAAAGGGGUGUAGUCAGUUUUAAGGUCACCCUGAGUGAUCCCCUUGUCAAAAGGGCAGGCUGGACUCCUGGCAACAACAGAGGAUUGAGCAUCA
B6: chr3:32568357:32568358:-_ENSG00000144635_ENST00000273130|hu_mus|FALSE|FALSE (ssRNA)
RNA: GGGAGUUCUACAGUCCGACGAUCCGUAGGAGAUGUAGGUGUUGUAGGAGAAACAGAAGCAGGUUUCCGUGUGAUUCUGUCUAGCUCUGCGUGAACAUCUGAAAGCACAGGUUUCUGGCCUGACUUUUUGGCGGACGGUGGCAACAACAGAGGAUUGAGCAUCA

Target: T1, UNK ZnF1-3
Assay: nsRBNS (natural sequence RNA bind-n-seq); RBNS binding buffer (assumed for nsRBNS): 25 mM Tris pH 7.5, 150 mM KCl, 3 mM MgCl2, 0.01% Triton X-100, 500 ug/ml BSA, 20 U/ml SUPERase-In, 4 C; UNK is unkempt and MSI1 is Musashi-1; names of the RNAs are library labels; protein concentration not given here; high values mean tight binding

First: B1
Second: B2
The binding signal of the first is lower: 0.543 enrichment R for the first, 1.41 enrichment R for the second.

First: B3
Second: B4
The binding signal of the first is higher: 1.44 enrichment R for the first, 0.99 enrichment R for the second.

Compared with B5, B6 is lower in binding signal: 0.857 enrichment R for the first, 0.716 enrichment R for the second.
